# Among all 150,000 compounds or so, about 540 (0.36%) showed an effect of 50% or more. Some of the results follow.
# Tested on: Plasmodium falciparum
# Experiment: Primary screen in NF54 nanoGlo assay, in single point, at 2uM, 72h; a lower Z score goes with more inhibition
# Format: functional, Erythrocyte
# Settings: timepoint 72 hour
Structure (SMILES),% Inhibition,Z score
COC(=O)CCc1cncc(NC(=O)COc2ccc(C)c(C)c2)c1,-12%,2.07
CC1=C(C)CN(c2ccc(S(N)(=O)=O)cc2C(F)(F)F)CC1,-5%,1
CCN1CCN(C(=O)c2cccc(Nc3c(Oc4ccc(C)c(C)c4)cnn(-c4cccc(Cl)c4)c3=O)c2)CC1,0%,-0.04
CC[C@@H](C(=O)NC)N(c1ccccc1F)S(C)(=O)=O,21%,-2.45
C[C@H]1C(=O)N(CCc2cc3ccccc3s2)C(=O)N1C,13%,-1.3
O=C(NCCc1cccs1)c1cccs1,5%,-0.72
CN(C(=O)c1c(Cl)cccc1OCC1CC1)C1CS(=O)(=O)C1,3%,-0.4
COc1cc2c(c(CN3CCC(Cn4ccnn4)CC3)c1)O[C@@H](C)C2,-12%,1.13
Cc1ccc2nsnc2c1S(=O)(=O)N1C[C@H]2CC[C@@H](C1)N(C)C2=O,-4%,0.75
COc1ccc(NC(=O)[C@@H](NC(C)=O)C(=O)NCc2ccccc2OC)cc1,-10%,1.25
NC(=O)[C@@H]1C[C@@H](F)CN1c1nc2ccccc2c(=O)[nH]1,-8%,0.97
O=C1O[C@H](C(=O)N2CCCC2)Cc2ccccc21,-7%,0.73
CCN1CCC(CC(=O)NCCCc2nc(C)c(C)s2)CC1,-26%,2.64
CCCc1sc(N(C(=O)Cc2ccccc2)c2cccc(OC)c2)nc1-c1ccc(OC)cc1,-13%,1.64
CC(=O)Nc1cc(NC2CCCC2)ccc1Cl,1%,-0.06
Cc1cccc(F)c1NC(=O)NC(C)(C)C(=O)NCC(C)(C)C,7%,-1.25
Cc1csc(CN(C)S(=O)(=O)N2CCCCCC2)n1,-8%,1.47
CN(CC1(CO)CCC1)C(=O)CCN1CCCCC1=O,-19%,1.71
C[C@@H](C(=O)NCCCOc1ccc(F)cc1)n1ccnc1,-15%,2.78
C[C@H](NCc1ncnn1CC(F)F)C1CCCC1,-9%,1.56
CCN(CC)C(=O)Cn1nc2nc(Nc3ccccc3)ccn2c1=O,2%,-0.28
CC[C@H](NS(=O)(=O)c1c(C)noc1C)c1nccs1,-17%,1.52

Structure (SMILES),% Inhibition,Z score
CCOc1ccc(CC(=O)N2CC3(C[C@@H](c4nnc(-c5ccccc5)o4)N(C)C3)C2)cc1,4%,-0.42
CCCn1nccc1S(=O)(=O)N1CCC(CCOC)CC1,-17%,1.55
COc1ccc(NC(=O)N2CCCS(=O)(=O)CC2)cc1OC(C)C,3%,-0.44
CC(C)NC(=O)N[C@H]1CCN2C(=O)c3cc(-c4ccc(F)cc4F)ccc3NC(=O)[C@@H]2C1,-1%,0.12
CCc1nc(CN[C@@H](Cc2ccccn2)C2CC2)cs1,-3%,0.41
Cc1ccc(S(=O)(=O)NCC(=O)N2CCC[C@H]2c2ccc3c(c2)OCCCO3)cc1C,35%,-4.54
COCCCCN1CCN(C(=O)NCc2c(F)ccc(C)c2F)CC1,4%,-0.78
Cc1ccc(O)c(C(=O)N[C@H](c2nccn2C)C2CC2)c1,-5%,0.92
CCN(C[C@H](C)C#N)S(=O)(=O)c1c(F)c(F)cc(F)c1F,7%,-0.96
CCCN1C[C@@H](NC(=O)c2cccc(-c3ccc4[nH]nc(N)c4c3)c2)CC1=O,-18%,2.68
CCN(CC)c1nc2cc(C(=O)NC3CCCC3)ccc2c(=O)n1Cc1ccccc1,-3%,0.6
CCOC(=O)c1cc(-c2cccc(NC(=O)c3ccc(C(=O)OC)cc3)c2)n(-c2cccc(C)c2)n1,5%,-0.65
N#Cc1ccc(OC[C@@H](O)CN2CCC23CCOCC3)cc1,-8%,1.27
CC(C)C[C@H]1CC(=O)N(C(C)(C)C(=O)Nc2ccc3c(c2)OCO3)C1,-1%,0.08
Cn1c(=O)c2c(ncn2Cc2cn(-c3ccc(F)c(Cl)c3)nn2)n(C)c1=O,-6%,0.71
CC(C)c1nnc(CN2C(=O)C3CC3C2=O)s1 (stereo unspecified),-4%,0.65
CN1C[C@@H]2CCC[C@H]1CN(C(=O)CCCc1cn[nH]c1)C2,-16%,2.38
O=C(Nc1nnc(-c2ccc(F)cc2F)o1)C1=COCCO1,-10%,1.82
O=C(N[C@H]1CC[C@H](Oc2ccccn2)CC1)c1ccc[nH]c1=O,-1%,0.18
Cc1cccc2nc(CNC(=O)C3CCN(CC(F)F)CC3)n(C)c12,-12%,1.91
Cc1nc2ncccc2cc1Br,0%,-0.07

# — ChEMBL document CHEMBL4888484, “Replenishing the malaria drug discovery pipeline: Screening and hit evaluation of the MMV Hit Generation Library 1 (HGL1) against asexual blood stage Plasmodium falciparum ,using a nano luciferase reporter read-out” (2022)
